Data as given in the supplement of paper PMC10369915.
Some of the results follow. Cut-off read from the data, not from the text of the source: active = 3.2 or more and inactive = the rest. Most of these values are background signal.

Key:
Experiment in all cases: enrichment score (SH2-bound / input frequency) (ratio); bacterial display of known human phosphotyrosine sites (pTyr-Var adds point mutants) read by sequencing; higher = stronger binding; tyrosines were phosphorylated by kinases first
Details in all cases: peptide library: pTyr-Var
[1] = target: SHP2 C-SH2 domain E139D
[2] = target: SHP2 C-SH2 domain wild-type
[3] = target: SHP2 N-SH2 domain L43F
[4] = target: SHP2 N-SH2 domain T42A
[5] = target: SHP2 N-SH2 domain T52S
[6] = target: SHP2 N-SH2 domain wild-type

Measured: enrichment score
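Note: displayed peptides selected on beads carrying the immobilized SH2 domain, with library peptides lacking any tyrosine serving as negative controls.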

B1: TP53_Y126_Y126C (peptide)
chain: SVTCTCSPALN
inactive: [1] 0.913 | [2] 1.15 | [3] 1.04 | [4] 0.825 | [5] 1.16 | [6] 1.43

B2: TP53_Y220_V217G (peptide)
chain: SVGVPYEPPEV
inactive: [1] 0.835 | [2] 0.734 | [3] 0.736 | [4] 0.666 | [5] 0.677 | [6] 0.717

B3: TP53_Y220_E221G (peptide)
chain: SVVVPYGPPEV
inactive: [1] 0.773 | [2] 0.669 | [3] 0.667 | [4] 0.699 | [5] 0.77 | [6] 0.745

B4: TP53_Y234_C229G_YF (peptide)
chain: GTTIHYNFMCN
inactive: [1] 1.16 | [2] 1.12 | [3] 0.982 | [4] 0.82 | [5] 0.995 | [6] 1.25

B5: TP53_Y220_S215N (peptide)
chain: NVVVPYEPPEV
inactive: [1] 0.826 | [2] 0.812 | [3] 0.824 | [4] 0.837 | [5] 0.838 | [6] 0.901

B6: TP53_Y126_T123N (peptide)
chain: SVNCTYSPALN
inactive: [1] 0.768 | [2] 1.15 | [3] 0.692 | [4] 0.635 | [5] 0.811 | [6] 1.08

B7: TP53_Y220_E224D (peptide)
chain: SVVVPYEPPDV
inactive: [1] 0.78 | [2] 0.857 | [3] 0.792 | [4] 0.662 | [5] 0.771 | [6] 0.95

B8: TP53_Y234_C238R (peptide)
chain: CTTIHYNYMRN
inactive: [1] 2.11 | [2] 2.1 | [3] 1.88 | [4] 1.53 | [5] 1.92 | [6] 1.68

B9: TP53_Y126_Y126S (peptide)
chain: SVTCTSSPALN
inactive: [1] 0.647 | [2] 1.03 | [3] 0.735 | [4] 0.67 | [5] 0.596 | [6] 1.28

B10: TP53_Y126_Y126H (peptide)
chain: SVTCTHSPALN
inactive: [1] 0.888 | [2] 1.01 | [3] 0.778 | [4] 0.651 | [5] 0.715 | [6] 1.12

B11: TP53_Y234_H233P (peptide)
chain: CTTIPYNYMCN
inactive: [1] 2.65 | [2] 2.41 | [3] 2.57 | [4] 2.08 | [5] 2.39 | [6] 2.07

B12: TP53_Y220_E224V (peptide)
chain: SVVVPYEPPVV
inactive: [1] 0.827 | [2] 0.693 | [3] 0.868 | [4] 0.795 | [5] 0.857 | [6] 0.931

B13: TP53_Y234_H233D (peptide)
chain: CTTIDYNYMCN
inactive: [1] 1.78 | [2] 1.79 | [3] 1.93 | [4] 1.6 | [5] 1.79 | [6] 1.5

B14: TP53_Y220_Y220D (peptide)
chain: SVVVPDEPPEV
inactive: [1] 0.693 | [2] 0.663 | [3] 0.503 | [4] 0.583 | [5] 0.614 | [6] 0.563

B15: TP53_Y220_S215R (peptide)
chain: RVVVPYEPPEV
inactive: [1] 0.848 | [2] 0.874 | [3] 0.775 | [4] 0.864 | [5] 0.863 | [6] 0.84

B16: TP53_Y234_H233D_YF (peptide)
chain: CTTIDYNFMCN
inactive: [1] 2.84 | [2] 2.35 | [3] 2.34 | [4] 2.05 | [5] 2.25 | [6] 2.17

B17: TP53_Y220_P219T (peptide)
chain: SVVVTYEPPEV
inactive: [1] 0.971 | [2] 1.1 | [3] 1.05 | [4] 0.94 | [5] 0.919 | [6] 0.87

B18: TP53_Y220_P223A (peptide)
chain: SVVVPYEPAEV
inactive: [1] 0.672 | [2] 0.639 | [3] 0.755 | [4] 0.793 | [5] 0.71 | [6] 0.879

B19: TP53_Y220_P223T (peptide)
chain: SVVVPYEPTEV
inactive: [1] 0.785 | [2] 1.05 | [3] 0.993 | [4] 1.01 | [5] 1.24 | [6] 1.02

B20: TP53_Y234_C229Y (peptide)
chain: YTTIHYNYMCN
inactive: [1] 1.11 | [2] 1.74 | [3] 1.35 | [4] 2.03 | [5] 1.35 | [6] 1.38

B21: TP53_Y220_S215K (peptide)
chain: KVVVPYEPPEV
inactive: [1] 0.99 | [2] 0.765 | [3] 0.878 | [4] 0.604 | [5] 1.22 | [6] 1.12

B22: TP53_Y220_V216L (peptide)
chain: SLVVPYEPPEV
inactive: [1] 0.892 | [2] 0.976 | [3] 0.81 | [4] 0.839 | [5] 0.913 | [6] 0.945

B23: TP53_Y234_C238Y (peptide)
chain: CTTIHYNYMYN
inactive: [1] 1.81 | [2] 2.13 | [3] 1.92 | [4] 1.74 | [5] 1.43 | [6] 1.97

B24: TP53_Y220_V216M (peptide)
chain: SMVVPYEPPEV
inactive: [1] 0.788 | [2] 0.867 | [3] 0.698 | [4] 0.655 | [5] 0.736 | [6] 0.759

B25: TP53_Y220_E221A (peptide)
chain: SVVVPYAPPEV
inactive: [1] 0.931 | [2] 0.803 | [3] 0.972 | [4] 0.659 | [5] 0.798 | [6] 0.82

B26: TP53_Y234_C229G (peptide)
chain: GTTIHYNYMCN
inactive: [1] 0.986 | [2] 1.17 | [3] 0.77 | [4] 0.951 | [5] 0.668 | [6] 1.24

B27: TP53_Y126_Y126N (peptide)
chain: SVTCTNSPALN
inactive: [1] 0.816 | [2] 0.969 | [3] 0.758 | [4] 0.548 | [5] 0.85 | [6] 1.28

B28: TP53_Y220_P219R (peptide)
chain: SVVVRYEPPEV
inactive: [1] 0.906 | [2] 0.841 | [3] 0.949 | [4] 0.91 | [5] 1.06 | [6] 0.909

B29: TP53_Y220_V216E (peptide)
chain: SEVVPYEPPEV
inactive: [1] 0.705 | [2] 0.514 | [3] 0.564 | [4] 0.411 | [5] 0.57 | [6] 0.591

B30: TP53_Y220_V225F (peptide)
chain: SVVVPYEPPEF
inactive: [1] 0.885 | [2] 0.892 | [3] 0.934 | [4] 0.847 | [5] 0.905 | [6] 0.839

B31: TP53_Y220_V217L (peptide)
chain: SVLVPYEPPEV
inactive: [1] 0.861 | [2] 0.83 | [3] 0.992 | [4] 0.699 | [5] 0.97 | [6] 0.931

B32: TP53_Y234_C238G_YF (peptide)
chain: CTTIHYNFMGN
inactive: [1] 1.88 | [2] 1.37 | [3] 1.34 | [4] 1.13 | [5] 1.37 | [6] 1.67

B33: TP53_Y220_Y220N (peptide)
chain: SVVVPNEPPEV
inactive: [1] 0.74 | [2] 0.715 | [3] 0.769 | [4] 0.7 | [5] 0.793 | [6] 0.852

B34: TP53_Y220_V217A (peptide)
chain: SVAVPYEPPEV
inactive: [1] 0.652 | [2] 0.745 | [3] 0.935 | [4] 0.735 | [5] 0.769 | [6] 0.992

B35: TP53_Y220_V218E (peptide)
chain: SVVEPYEPPEV
inactive: [1] 0.586 | [2] 0.713 | [3] 0.563 | [4] 0.487 | [5] 0.59 | [6] 0.671

B36: TP53_Y220_V218M (peptide)
chain: SVVMPYEPPEV
inactive: [1] 0.856 | [2] 0.768 | [3] 0.946 | [4] 0.782 | [5] 0.716 | [6] 0.869

B37: TP53_Y220_P222T (peptide)
chain: SVVVPYETPEV
inactive: [1] 0.923 | [2] 0.796 | [3] 0.855 | [4] 0.77 | [5] 0.84 | [6] 1.07
